Measured values as given in the supplement of paper PMC10126150.
Sequences with one replicate were seen in a single cluster, so their values are uncertain.

Test system: ATP
Experiment: switch fluorescence ratio, 500 uM ATP over buffer (Cy3 cluster intensity, sum of 5 cycles each) (fold (ratio)); higher = stronger signal-on switching upon ATP binding; sequences stand for … in TCGTCGGCAGCGTCAGATGTGTATAAGAGACAGTTTTTTTTTTTTTTTTTTTTTTTTT…TC
Conditions: aptamer strand: ATP DNA aptamer (quencher-CACCTGGGGGAGTATTGCGGAGGAAGG + anchor), 100 nM annealed; ATP concentration: 500 uM; one replicate
Outline: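 Cy3-labelled switching-strand clusters on a modified Illumina MiSeq flow-cell were annealed to 100 nM quencher-labelled ATP aptamer and imaged first in selection buffer, then after 15 min with 500 uM ATP at 22 °C. NaOH stripping and re-annealing separated each of five buffer/ATP cycles, and clusters outside 100-1000 RFU were excluded. The fluorescence ratio sums target-cycle Cy3 intensity over buffer-cycle Cy3 intensity per cluster and averages it per switch-domain sequence.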
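Note: ATP exposure 15 min at 22 °C before imaging.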

GTGTATCTT
switch fluorescence ratio: 0.994

ACAATTGAGA
switch fluorescence ratio: 0.976

GAGGTGTATA
switch fluorescence ratio: 1.05

GCGTCTTAGT
switch fluorescence ratio: 1.02

AGGTATGTGC
switch fluorescence ratio: 0.975

TCAAAGGGTG
switch fluorescence ratio: 1.15

CGTAACGTT
switch fluorescence ratio: 0.993

TGGCCCACA
switch fluorescence ratio: 1.02

GTCTTAATCG
switch fluorescence ratio: 1.02

TTTGTGGTCA
switch fluorescence ratio: 1

TTAGGTATGG
switch fluorescence ratio: 0.989

TGGGCTTTAT
switch fluorescence ratio: 1.01

TTAAATGGCG
switch fluorescence ratio: 1.02

AAATGCGTGG
switch fluorescence ratio: 0.989

CGATGACGGG
switch fluorescence ratio: 0.949

GGCCCCCTTG
switch fluorescence ratio: 1.15

GTGCACATGG
switch fluorescence ratio: 0.967

ACATCAGGAA
switch fluorescence ratio: 1.04

TTATATAGAA
switch fluorescence ratio: 1.03

CTATCAATTA
switch fluorescence ratio: 1.02

GACGTGACGT
switch fluorescence ratio: 1.04

TACTAGGGAG
switch fluorescence ratio: 1.02

CCCCCCTGGC
switch fluorescence ratio: 1.12

CTGGGTCGAA
switch fluorescence ratio: 1.03

TTCACGCATT
switch fluorescence ratio: 1.33

GGGTACCTCG
switch fluorescence ratio: 1

CATCTGATTG
switch fluorescence ratio: 1.02

GCAATTTGTA
switch fluorescence ratio: 0.986

TTACGGCAAT
switch fluorescence ratio: 1.68

TCTTGCGGGC
switch fluorescence ratio: 1.04

CTGGAAGAAG
switch fluorescence ratio: 0.945

GTTATTGAAC
switch fluorescence ratio: 1

GCCAATACGT
switch fluorescence ratio: 3.11

CTACAGCCGT
switch fluorescence ratio: 1.11

GTTGAATAAG
switch fluorescence ratio: 1.01

ATGGTGAGCA
switch fluorescence ratio: 0.962

CAGGAAGATA
switch fluorescence ratio: 1.05

AAGAGAGAAG
switch fluorescence ratio: 0.969

CTTTTTGATT
switch fluorescence ratio: 0.967

GGGCGACGGT
switch fluorescence ratio: 1.02

CAAATGCATC
switch fluorescence ratio: 1.06

CCTAATCTCG
switch fluorescence ratio: 1.03

GAAGTTTGGC
switch fluorescence ratio: 0.999

ACGCAGCGTT
switch fluorescence ratio: 1.08

CCGTGTAATC
switch fluorescence ratio: 1.35

GATATATACA
switch fluorescence ratio: 1.04

AGCCGTCATG
switch fluorescence ratio: 0.976

GAGGAGGCTC
switch fluorescence ratio: 1.03

GGAATGTATT
switch fluorescence ratio: 1

CGAGAGAATG
switch fluorescence ratio: 1.03

AGCTTGCTC
switch fluorescence ratio: 1.07

GTATCTATCG
switch fluorescence ratio: 0.992

TCCTGCGAGC
switch fluorescence ratio: 1.18

TGATGAAGCG
switch fluorescence ratio: 0.988

ATTATAATAG
switch fluorescence ratio: 1.01

TCAAGATTAG
switch fluorescence ratio: 0.976

GAACGCGCAA
switch fluorescence ratio: 2.87

CCTCCGAACG
switch fluorescence ratio: 2.45

ATAGCGGTC
switch fluorescence ratio: 1.03

GCAGTGCTAT
switch fluorescence ratio: 1

AGAGAACCGT
switch fluorescence ratio: 1.01

GAACCAATCC
switch fluorescence ratio: 1.47

GGGGCCAGTA
switch fluorescence ratio: 1.07

TTACTCAGAT
switch fluorescence ratio: 1.02

CACAGAGCCC
switch fluorescence ratio: 1.04

GAGTCGGTAG
switch fluorescence ratio: 0.939

GGTGTCGGCG
switch fluorescence ratio: 1.05

TTATGAAAA
switch fluorescence ratio: 0.983

TGACCCCTTC
switch fluorescence ratio: 1.06

AGGGTGAGGA
switch fluorescence ratio: 1.02

AATGTATATA
switch fluorescence ratio: 1.02

ATGGGATCTA
switch fluorescence ratio: 0.977

ATTTATAATG
switch fluorescence ratio: 0.992

TTGTGATGAA
switch fluorescence ratio: 0.981

GAATTATCAA
switch fluorescence ratio: 0.987

AGGCCGCTTC
switch fluorescence ratio: 1.05

ACTCTAGCGC
switch fluorescence ratio: 1.2

TCGACTATGT
switch fluorescence ratio: 1

AGTTTTTCAC
switch fluorescence ratio: 1.02

CCACAAGAGG
switch fluorescence ratio: 1.12

ACCGTCGGTA
switch fluorescence ratio: 1.04

TCCCGATTGT
switch fluorescence ratio: 0.987

CCATGCTTAC
switch fluorescence ratio: 4.85

TTGTTTTAGC
switch fluorescence ratio: 0.98

CCAATCATTC
switch fluorescence ratio: 1.1

AGTCAATTCA
switch fluorescence ratio: 0.968

ATGACTATAT
switch fluorescence ratio: 1.04

GTCGTGTTTT
switch fluorescence ratio: 1.01

TGTTTCCAGT
switch fluorescence ratio: 1.02

CGATAACAGC
switch fluorescence ratio: 0.997

TTTGATAAT
switch fluorescence ratio: 1.05

TTCGTGCGTA
switch fluorescence ratio: 1.01

GCAGGGTGTT
switch fluorescence ratio: 1.11

GAGTATGTTA
switch fluorescence ratio: 0.995

CAATGTTGGA
switch fluorescence ratio: 0.966

AATGAGATCT
switch fluorescence ratio: 1.02

TTTGTGCCCT
switch fluorescence ratio: 1.01

TGAGTCCAAG
switch fluorescence ratio: 1.02

CGCAACACAT
switch fluorescence ratio: 2.74

GCACCTAGGA
switch fluorescence ratio: 1.08

AATTAAACG
switch fluorescence ratio: 1.02

AAAGAGGTGG
switch fluorescence ratio: 0.981

ATCAGAATTA
switch fluorescence ratio: 0.993

GATTATTCAA
switch fluorescence ratio: 0.964

GGATATACGA
switch fluorescence ratio: 1.05

TCATAATTTG
switch fluorescence ratio: 0.968

TGTAAGCGCC
switch fluorescence ratio: 0.974

AGTCTGAGGT
switch fluorescence ratio: 0.96

CACTGGGCTA
switch fluorescence ratio: 0.952

AGGTGTCTTT
switch fluorescence ratio: 1.01

TGGTAGCCA
switch fluorescence ratio: 1.03

GCCTCGATGA
switch fluorescence ratio: 1.01

CGGCCAATCA
switch fluorescence ratio: 1.08

TTCAGCCGG
switch fluorescence ratio: 1.11

CTTAAGAATC
switch fluorescence ratio: 0.978

AAAAACGCTC
switch fluorescence ratio: 0.989

GTATAGGCTA
switch fluorescence ratio: 0.984

AACATCCCTG
switch fluorescence ratio: 1.03

TCGAACCTTT
switch fluorescence ratio: 1

AGGACGACCT
switch fluorescence ratio: 1.05

GCTCTCACTC
switch fluorescence ratio: 1.08

TTTAAGCGA
switch fluorescence ratio: 1.01

GGACCAGTGC
switch fluorescence ratio: 1.23

CTTAGTTACC
switch fluorescence ratio: 0.999

ATACGACCTT
switch fluorescence ratio: 1.58

ACTTGGAAGA
switch fluorescence ratio: 1.01

AAACGAAGTA
switch fluorescence ratio: 1.03

AGGTACACCC
switch fluorescence ratio: 1.07

GAGTTTCGGG
switch fluorescence ratio: 0.979

ATAGTGGTTG
switch fluorescence ratio: 1

TCAGAAAACG
switch fluorescence ratio: 0.996

CAGCCCAGCC
switch fluorescence ratio: 1.03

ATTGTAGTAC
switch fluorescence ratio: 1.05

CGATGTCCGT
switch fluorescence ratio: 1.2

AGGGCCACCA
switch fluorescence ratio: 1.06

AATATTTAAT
switch fluorescence ratio: 0.951

CTATGGTAAC
switch fluorescence ratio: 0.996

GTTGCCTAGT
switch fluorescence ratio: 0.975

TTTAAAAGTT
switch fluorescence ratio: 0.966

AATTCAATAA
switch fluorescence ratio: 1.01

GCGGAAAATT
switch fluorescence ratio: 0.988

GTGGAGTAGC
switch fluorescence ratio: 1.08

TTAACTAGCT
switch fluorescence ratio: 1.02

CTTACAGCAG
switch fluorescence ratio: 1.14

CCGAATTAAA
switch fluorescence ratio: 1.07

CAGCGTCAG
switch fluorescence ratio: 1

AGATGGTTCG
switch fluorescence ratio: 1.01

GTGATTAGTG
switch fluorescence ratio: 1

GGGGTCCGTT
switch fluorescence ratio: 1

AGGACGT
switch fluorescence ratio: 0.985

AGTGACGCGC
switch fluorescence ratio: 1.05

TAGAAGCCAT
switch fluorescence ratio: 0.997

TCATTTTCTC
switch fluorescence ratio: 0.996

CGGATTTACG
switch fluorescence ratio: 1.01

GCACGAGGGC
switch fluorescence ratio: 0.967

TTACCAAAGA
switch fluorescence ratio: 1.01

CTGACGGGCT
switch fluorescence ratio: 1.07
